One assay concerns the target T1, Hu_F72A (human, UniProt Q07011 18-255).
T1 construct: On HEK293F; also called human CD137 F72A
The experiment in a line: flow cytometry, HEK293F. For orientation: Flow cytometry measures light scatter and fluorescence of single cells or particles in a stream.

Another assay addresses T2, Hu_F36A (human, UniProt Q07011 18-255).
T2 construct: On HEK293F; also called human CD137 F36A
The experiment in a line: flow cytometry, HEK293F.

In another assay the target is T3, Hu_R66A (human, UniProt Q07011 18-255).
T3 construct: On HEK293F; also called human CD137 R66A
The experiment in a line: flow cytometry, HEK293F.

Assay [1] concerns the target T4, full-length human CD137 on the cell surface (human, UniProt Q07011 18-255).
T4 construct: also called Human WT
The experiment in a line: flow cytometry ligand competition, HEK293F cells with human CD137, antibody 100 nM then 33 nM biotinylated CD137L, streptavidin-Alexa 647.

Chain of Hu_F36A (Q07011 18-255 F36A): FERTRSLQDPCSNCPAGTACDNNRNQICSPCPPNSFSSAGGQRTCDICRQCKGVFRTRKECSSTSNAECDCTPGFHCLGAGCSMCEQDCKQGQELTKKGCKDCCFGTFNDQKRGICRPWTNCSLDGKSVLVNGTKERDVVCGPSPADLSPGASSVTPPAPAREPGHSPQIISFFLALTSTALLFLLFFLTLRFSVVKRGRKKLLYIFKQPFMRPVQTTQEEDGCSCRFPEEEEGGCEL
Chain of Hu_F72A (Q07011 18-255 F72A): as the sequence (Q07011 18-255 F36A) above, with A19F, F55A counted along it
Chain of Hu_R66A (Q07011 18-255 R66A): as the sequence (Q07011 18-255 F36A) above, with A19F, R49A counted along it

B1: AG10131 (antibody, human IgG4 S228P, kappa)
heavy: EVQLVESGGGLVQPGGSLRLSCAASGFSLSTGGVGVGWIRQAPGKGLEWLALIDWADDKYYSPSLKSRLTISRDNSKNTLYLQLNSLRAEDTAVYYCARGGSDTVIGDWFAYWGQGTLVTVSSASTKGPSVFPLAPCSRSTSESTAALGCLVKDYFPEPVTVSWNSGALTSGVHTFPAVLQSSGLYSLSSVVTVPSSSLGTKTYTCNVDHKPSNTKVDKRV[human IgG4 Fc with S228P (EU numbers) skipped]
light: DIQLTQSPSSLSASVGDRVTITCRASQSIGSYLAWYQQKPGKAPKLLIYDASNLETGVPSRFSGSGSGTDFTLTISSLQPEDFATYYCQQGYYLWTFGQGTKVEIKRTVAAPSVFIFPPSDEQLKSGTASVVCLLNNFYPREAKVQWKVDNALQSGNSQESVTEQDSKDSTYSLSSTLTLSKADYEKHKVYACEVTHQGLSSPVTKSFNRGEC
notes: also called AG10131-IgG4
On to B1, for which the binding result with Hu_F72A, in the assay with Hu_F36A and with Hu_R66A was “no binding” throughout. The “% in upper right quadrant (CD137L signal)” value in assay [1] was determined as 29.1%. Besides, the “Median (APC signal of bound biotinylated CD137L)” value in assay [1] turned out to be 17700.

The record behind these values is patent publication US20190055314A1 (ADAGENE, published 2019).
